One assay addresses T1, hCD47-his (human, UniProt Q08722 in part).
T1 construct: Bought protein coated on the ELISA plate; also called Cat#CD7-H5227; not shown: his tag
In words: ELISA, hCD47-his coated. On the technique in general: In an ELISA, binding on a coated surface is turned into a signal by an enzyme label.

In assay [1] the target is T2, human CD47 on cells (CHO-K1/hCD47; human red blood cells RBC) (human, UniProt Q08722).
T2 construct: whole, on cells; also called CHO-K1/human CD47; 红细胞
Nature of the assay: flow cytometry, CHO-K1/hCD47 mixed 1:1 with CHO-K1/hCD20-CD47, 10 μg/mL. On the technique in general: A flow cytometer gives signals particle by particle.

Chain of hCD47-his (Q08722 19-139 limits assumed): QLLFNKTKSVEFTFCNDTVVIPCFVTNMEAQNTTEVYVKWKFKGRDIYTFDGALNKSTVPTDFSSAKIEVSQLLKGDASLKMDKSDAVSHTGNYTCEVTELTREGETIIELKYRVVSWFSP

B1: 重组蛋白SIRPaD1 (Fc fusion)
chain: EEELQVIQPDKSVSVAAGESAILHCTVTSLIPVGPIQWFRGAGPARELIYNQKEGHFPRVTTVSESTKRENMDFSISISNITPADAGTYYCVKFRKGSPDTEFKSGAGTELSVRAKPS
notes: Control recombinant protein; detected with anti-human IgG second antibodies; the abstract calls it SIRPaD1-Fc; also called SIRPaD1-Fc; not shown: Fc part of the recombinant protein (abstract: SIRPaD1-Fc); construct and its limits not described
B1: the binding result (in the assay with hCD47-his; in assay [1]) was “binds” in each case.
